The other results are listed elsewhere or left out. Interaction screen of human proteins with wild-type SARS-CoV-2 proteins by split-DHFR complementation in yeast, 1 µg/mL methotrexate. Value = fitness of the pair (three or more lineages) minus that of the viral protein without a human partner, on a scale set by negative (0) and fused positive (1) controls, mean of up to three cultures; higher = more likely to interact. Active = false discovery rate below 0.05 (one-sided t-test) in at least one culture. Nearly all pairs are not hits, and differences among them are mostly noise (correlation between cultures about 0.3); most hits were seen in one culture only. Human sequences are the Swiss-Prot entries looked up by gene name; the clone may be another isoform. NSP2 values were corrected by the authors for a growth advantage. Listed are human proteins with a hit and a random twelfth of the others.
B1: THEM5, Q8N1Q8 (protein)
chain: MIRRCFQVAARLGHHRGLLEAPRILPRLNPASAFGSSTDSMFSRFLPEKTDLKDYALPNASWCSDMLSLYQEFLEKTKSSGWIKLPSFKSNRDHIRGLKLPSGLAVSSDKGDCRIFTRCIQVEGQGFEYVIFFQPTQKKSVCLFQPGSYLEGPPGFAHGGSLAAMMDETFSKTAFLAGEGLFTLSLNIRFKNLIPVDSLVVMDVELDKIEDQKLYMSCIAHSRDQQTVYAKSSGVFLQLQLEEESPQ
B2: TGS1, Q96RS0 (protein)
chain: MCCEKWSRVAEMFLFIEEREDCKILCLCSRAFVEDRKLYNLGLKGYYIRDSGNNSGDQATEEEEGGYSCGTAESHDSKGIGLDESELDSEAELMRSMGLPLQFGRITAHKDFEVSMNTRNKVKIKKKKHQKKYLDEIVQESWRKEYEEDDILASDDPSSIEQYENTRTYELQSKKDTETENPPVENTLSPKLEITEKWEKYWNEYGGGLLWQSWQEKHPGQALSSEPWNFPDTKEEWEQHYSQLYWYYLEQFQYWEAQGWTFDASQSCDTDTYTSKTEADDKNDEKCMKVDLVSFPSSPIMVDNDSSGTSDKDHSEILDGISNIKLNSEEVTQSQLDSCTSHDGHQQLSEVSSKRECPASGQSEPRNGGTNEESNSSGNTNTDPPAEDSQKSSGANTSKDRPHASGTDGDESEEDPPEHKPSKLKRSHELDIDENPASDFDDSGSLLGFKYGSGQKYGGIPNFSHRQVRYLEKNVKLKSKYLDMRRQIKMKNKHIFFTKESEKPFFKKSKILSKVEKFLTWVNKPMDEEASQESSSHDNVHDASTSSDSEEQDMSVKKGDDLLETNNPEPEKCQSVSSAGELETENYERDSLLATVPDEQDCVTQEVPDSRQAETEAEVKKKKNKKKNKKVNGLPPEIAAVPELAKYWAQRYRLFSRFDDGIKLDREGWFSVTPEKIAEHIAGRVSQSFKCDVVVDAFCGVGGNTIQFALTGMRVIAIDIDPVKIALARNNAEVYGIADKIEFICGDFLLLASFLKADVVFLSPPWGGPDYATAETFDIRTMMSPDGFEIFRLSKKITNNIVYFLPRNADIDQVASLAGPGGQVEIEQNFLNNKLKTITAYFGDLIRRPASET
B3: TEX2, Q8IWB9 (protein)
chain: MTSLYGRHAEKTTDMPKPSAPKVHVQRSVSRDTIAIHFSASGEEEEEEEEEFREYFEEGLDDQSIVTGLEAKEDLYLEPQVGHDPAGPAASPVLADGLSVSQAPAILPVSKNTVKLLESPVPAAQVLSTVPLAVSPGSSSSGPLASSPSVSSLSEQKTSSSSPLSSPSKSPILSSSASTSTLSSAKPFMSLVKSLSTEVEPKESPHPARHRHLMKTLVKSLSTDTSRQESDTVSYKPPDSKLNLHLFKQFTQPRNTGGDSKTAPSSPLTSPSDTRSFFKVPEMEAKIEDTKRRLSEVIYEPFQLLSKIIGEESGSHRPKALSSSASELSNLSSLNGHLESNNNYSIKEEECDSEGDGYGSDSNIPRSDHPKSTGEPTREIELKSSQGSSLKDLGLKTSSLVLEKCSLSALVSKEDEEFCELYTEDFDLETEGESKVDKLSDIPLKPEVLAEDGVVLDSEDEVDSAVQHPELPVKTLGFFIMCVYVYLILPLPHYVSGLFLGIGLGFMTAVCVIWFFTPPSAHKYHKLHKNLRHWNTRSLDIKEPEILKGWMNEIYNYDPETYHATLTHSVFVRLEGGTLRLSKPNKNISRRASYNEPKPEVTYISQKIYDLSDSKIYLVPKTLARKRIWNKKYPICIELGQQDDFMSKAQTDKETSEEKPPAEGSEDPKKPPRPQEGTRSSQRDQILYLFGRTGREKEEWFRRFILASKLKSEIKKSSGVSGGKPGLLPAHSRHNSPSGHLTHSRSSSKGSVEEIMSQPKQKELAGSVRQKMLLDYSVYMGRCVPQESRSPQRSPLQSAESSPTAGKKLPEVPPSEEEEQEAWVNALLGRIFWDFLGEKYWSDLVSKKIQMKLSKIKLPYFMNELTLTELDMGVAVPKILQAFKPYVDHQGLWIDLEMSYNGSFLMTLETKMNLTKLGKEPLVEALKVGEIGKEGCRPRAFCLADSDEESSSAGSSEEDDAPEPSGGDKQLLPGAEGYVGGHRTSKIMRFVDKITKSKYFQKATETEFIKKKIEEVSNTPLLLTVEVQECRGTLAVNIPPPPTDRVWYGFRKPPHVELKARPKLGEREVTLVHVTDWIEKKLEQEFQKVFVMPNMDDVYITIMHSAMDPRSTSCLLKDPPVEAADQP

Target: SARS-CoV-2 E
Assay: yeast fitness gain over the viral ORF with no human partner (scaled fitness); higher = more likely to interact
Description: (§1)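 Split mouse DHFR complementation in pooled diploid yeast: human ORFeome clones carry one fragment and viral ORFs the other; barcoded lineages compete in 1 µg/mL methotrexate and fitness is read by barcode sequencing in up to three cultures.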

**Q.** How did the yeast fitness gain turn out when B1 was run?
**A.** inactive: 0.0908

**Q.** For B2, which yeast fitness gain is on record?
**A.** inactive: 0.085

**Q.** With B3 as the binder, how does the yeast fitness gain read?
**A.** inactive: -0.0527

Target: SARS-CoV-2 M
Assay: as above
Description: as §1

**Q.** For B1, which yeast fitness gain is on record?
**A.** inactive: -0.042

**Q.** With B2 as the binder, how does the yeast fitness gain read?
**A.** inactive: -0.0153

**Q.** Which yeast fitness gain does the source give for B3 here?
**A.** inactive: 0.124

Target: SARS-CoV-2 N
Assay: as above
Description: as §1

**Q.** For B1, which yeast fitness gain is on record?
**A.** inactive: 0.0583

**Q.** B2 was tested. Which yeast fitness gain did it give?
**A.** inactive: 0.0872

**Q.** For B3, which yeast fitness gain is on record?
**A.** inactive: 0.0358

Target: SARS-CoV-2 NSP1
Assay: as above
Description: as §1

**Q.** For B1, which yeast fitness gain is on record?
**A.** inactive: -0.0355

**Q.** With B2 as the binder, how does the yeast fitness gain read?
**A.** inactive: -0.027

**Q.** With B3 as the binder, how does the yeast fitness gain read?
**A.** inactive: 0.0515

Target: SARS-CoV-2 NSP10
Assay: as above
Description: as §1

**Q.** Which yeast fitness gain does the source give for B1 here?
**A.** inactive: 0.0232

**Q.** With B2 as the binder, how does the yeast fitness gain read?
**A.** inactive: -0.00258

**Q.** For B3, which yeast fitness gain is on record?
**A.** inactive: -0.0314

Target: SARS-CoV-2 NSP12
Assay: as above
Description: as §1

**Q.** With B1 as the binder, how does the yeast fitness gain read?
**A.** inactive: -0.101

**Q.** With B2 as the binder, how does the yeast fitness gain read?
**A.** inactive: 0.0621

**Q.** B3 was tested. Which yeast fitness gain did it give?
**A.** inactive: -0.00603

Target: SARS-CoV-2 NSP13
Assay: as above
Description: as §1

**Q.** B1 was tested. Which yeast fitness gain did it give?
**A.** inactive: 0.0192

**Q.** B2 was tested. Which yeast fitness gain did it give?
**A.** inactive: -0.075

**Q.** Which yeast fitness gain does the source give for B3 here?
**A.** inactive: -0.0565

Target: SARS-CoV-2 NSP15
Assay: as above
Description: as §1

**Q.** How did the yeast fitness gain turn out when B1 was run?
**A.** inactive: 0.072

**Q.** B2 was tested. Which yeast fitness gain did it give?
**A.** inactive: 0.0486

**Q.** With B3 as the binder, how does the yeast fitness gain read?
**A.** inactive: -0.00206

Target: SARS-CoV-2 NSP2
Assay: as above
Description: as §1

**Q.** For B1, which yeast fitness gain is on record?
**A.** inactive: -0.047

**Q.** For B2, which yeast fitness gain is on record?
**A.** inactive: -0.154

**Q.** With B3 as the binder, how does the yeast fitness gain read?
**A.** inactive: -0.109

Target: SARS-CoV-2 NSP5
Assay: as above
Description: as §1

**Q.** For B1, which yeast fitness gain is on record?
**A.** inactive: 0.0723

**Q.** With B2 as the binder, how does the yeast fitness gain read?
**A.** inactive: 0.0932

**Q.** Which yeast fitness gain does the source give for B3 here?
**A.** inactive: 0.000856

Target: SARS-CoV-2 NSP6
Assay: as above
Description: as §1

**Q.** How did the yeast fitness gain turn out when B1 was run?
**A.** inactive: 0.0571

**Q.** B2 was tested. Which yeast fitness gain did it give?
**A.** inactive: 0.011

**Q.** For B3, which yeast fitness gain is on record?
**A.** inactive: -0.0182

Target: SARS-CoV-2 NSP7
Assay: as above
Description: as §1

**Q.** How did the yeast fitness gain turn out when B1 was run?
**A.** inactive: 0.104

**Q.** B2 was tested. Which yeast fitness gain did it give?
**A.** inactive: 0.0747

**Q.** Which yeast fitness gain does the source give for B3 here?
**A.** inactive: 0.0472

Target: SARS-CoV-2 NSP8
Assay: as above
Description: as §1

**Q.** How did the yeast fitness gain turn out when B1 was run?
**A.** inactive: 0.0611

**Q.** B2 was tested. Which yeast fitness gain did it give?
**A.** inactive: 0.00191

**Q.** With B3 as the binder, how does the yeast fitness gain read?
**A.** inactive: -0.00611

Target: SARS-CoV-2 NSP9
Assay: as above
Description: as §1

**Q.** Which yeast fitness gain does the source give for B1 here?
**A.** inactive: 0.0541

**Q.** With B2 as the binder, how does the yeast fitness gain read?
**A.** inactive: -0.0226

**Q.** For B3, which yeast fitness gain is on record?
**A.** inactive: -0.178

Target: SARS-CoV-2 ORF10
Assay: as above
Description: as §1

**Q.** B1 was tested. Which yeast fitness gain did it give?
**A.** inactive: -0.0609

**Q.** Which yeast fitness gain does the source give for B2 here?
**A.** inactive: 0.00245

**Q.** How did the yeast fitness gain turn out when B3 was run?
**A.** inactive: 0.0144

Target: SARS-CoV-2 ORF3A
Assay: as above
Description: as §1

**Q.** How did the yeast fitness gain turn out when B1 was run?
**A.** inactive: -0.00786

**Q.** Which yeast fitness gain does the source give for B2 here?
**A.** inactive: -0.152

**Q.** B3 was tested. Which yeast fitness gain did it give?
**A.** inactive: 0.0573

Target: SARS-CoV-2 ORF3B
Assay: as above
Description: as §1

**Q.** With B1 as the binder, how does the yeast fitness gain read?
**A.** inactive: -0.0222

**Q.** Which yeast fitness gain does the source give for B2 here?
**A.** inactive: 0.0054

**Q.** For B3, which yeast fitness gain is on record?
**A.** inactive: -0.0376

Target: SARS-CoV-2 ORF6
Assay: as above
Description: as §1

**Q.** B1 was tested. Which yeast fitness gain did it give?
**A.** inactive: -0.00261

**Q.** B2 was tested. Which yeast fitness gain did it give?
**A.** inactive: 0.00722

**Q.** Which yeast fitness gain does the source give for B3 here?
**A.** inactive: 0.0374

Target: SARS-CoV-2 ORF7A
Assay: as above
Description: as §1

**Q.** With B1 as the binder, how does the yeast fitness gain read?
**A.** inactive: -0.0323

**Q.** With B2 as the binder, how does the yeast fitness gain read?
**A.** inactive: -0.0413

**Q.** For B3, which yeast fitness gain is on record?
**A.** inactive: 0.00898

Target: SARS-CoV-2 ORF7B
Assay: as above
Description: as §1

**Q.** Which yeast fitness gain does the source give for B1 here?
**A.** inactive: 0.0647

**Q.** For B2, which yeast fitness gain is on record?
**A.** inactive: -0.0151

**Q.** B3 was tested. Which yeast fitness gain did it give?
**A.** inactive: -0.043

Target: SARS-CoV-2 ORF8
Assay: as above
Description: as §1

**Q.** For B1, which yeast fitness gain is on record?
**A.** inactive: 0.0431

**Q.** How did the yeast fitness gain turn out when B2 was run?
**A.** inactive: 0.0251

**Q.** With B3 as the binder, how does the yeast fitness gain read?
**A.** inactive: 0.0315

Target: SARS-CoV-2 ORF9B
Assay: as above
Description: as §1

**Q.** For B1, which yeast fitness gain is on record?
**A.** inactive: -0.0511

**Q.** B2 was tested. Which yeast fitness gain did it give?
**A.** inactive: 0.0382

**Q.** B3 was tested. Which yeast fitness gain did it give?
**A.** inactive: -0.0291

Target: SARS-CoV-2 S
Assay: as above
Description: as §1

**Q.** With B1 as the binder, how does the yeast fitness gain read?
**A.** inactive: 0.0393

**Q.** For B2, which yeast fitness gain is on record?
**A.** inactive: 0.00462

**Q.** Which yeast fitness gain does the source give for B3 here?
**A.** inactive: 0.0613

Target: SARS-CoV-2 NSP16
Assay: as above
Description: as §1

**Q.** How did the yeast fitness gain turn out when B2 was run?
**A.** inactive: -0.11

**Q.** For B3, which yeast fitness gain is on record?
**A.** inactive: -0.0205

Target: SARS-CoV-2 NSP4
Assay: as above
Description: as §1

**Q.** Which yeast fitness gain does the source give for B2 here?
**A.** inactive: -0.332

**Q.** B3 was tested. Which yeast fitness gain did it give?
**A.** inactive: -0.272

Target: SARS-CoV-2 ORF9Bwu (the 73-codon ORF)
Assay: as above
Description: as §1

**Q.** For B2, which yeast fitness gain is on record?
**A.** inactive: -0.0156

**Q.** Which yeast fitness gain does the source give for B3 here?
**A.** inactive: 0.0416

From the supplement of paper PMC11741623
